Article PMC4336329 (PLoS ONE, 2015)
In all, about 310,000 compounds went through this assay and about 14,000 (4.5%) showed an effect of 50% or more. The effect is printed as a negative number. Some of the results follow.

target: human ether-à-go-go-related gene (hERG) potassium channel (human, UniProt Q12809); experiment: primary screen, population patch clamp on CHO cells stably expressing hERG
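Note: peak tail current of the secondary pulse compared with the same well before compound.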

Sequence of human ether-à-go-go-related gene (hERG) potassium channel (Q12809 whole entry, looked up): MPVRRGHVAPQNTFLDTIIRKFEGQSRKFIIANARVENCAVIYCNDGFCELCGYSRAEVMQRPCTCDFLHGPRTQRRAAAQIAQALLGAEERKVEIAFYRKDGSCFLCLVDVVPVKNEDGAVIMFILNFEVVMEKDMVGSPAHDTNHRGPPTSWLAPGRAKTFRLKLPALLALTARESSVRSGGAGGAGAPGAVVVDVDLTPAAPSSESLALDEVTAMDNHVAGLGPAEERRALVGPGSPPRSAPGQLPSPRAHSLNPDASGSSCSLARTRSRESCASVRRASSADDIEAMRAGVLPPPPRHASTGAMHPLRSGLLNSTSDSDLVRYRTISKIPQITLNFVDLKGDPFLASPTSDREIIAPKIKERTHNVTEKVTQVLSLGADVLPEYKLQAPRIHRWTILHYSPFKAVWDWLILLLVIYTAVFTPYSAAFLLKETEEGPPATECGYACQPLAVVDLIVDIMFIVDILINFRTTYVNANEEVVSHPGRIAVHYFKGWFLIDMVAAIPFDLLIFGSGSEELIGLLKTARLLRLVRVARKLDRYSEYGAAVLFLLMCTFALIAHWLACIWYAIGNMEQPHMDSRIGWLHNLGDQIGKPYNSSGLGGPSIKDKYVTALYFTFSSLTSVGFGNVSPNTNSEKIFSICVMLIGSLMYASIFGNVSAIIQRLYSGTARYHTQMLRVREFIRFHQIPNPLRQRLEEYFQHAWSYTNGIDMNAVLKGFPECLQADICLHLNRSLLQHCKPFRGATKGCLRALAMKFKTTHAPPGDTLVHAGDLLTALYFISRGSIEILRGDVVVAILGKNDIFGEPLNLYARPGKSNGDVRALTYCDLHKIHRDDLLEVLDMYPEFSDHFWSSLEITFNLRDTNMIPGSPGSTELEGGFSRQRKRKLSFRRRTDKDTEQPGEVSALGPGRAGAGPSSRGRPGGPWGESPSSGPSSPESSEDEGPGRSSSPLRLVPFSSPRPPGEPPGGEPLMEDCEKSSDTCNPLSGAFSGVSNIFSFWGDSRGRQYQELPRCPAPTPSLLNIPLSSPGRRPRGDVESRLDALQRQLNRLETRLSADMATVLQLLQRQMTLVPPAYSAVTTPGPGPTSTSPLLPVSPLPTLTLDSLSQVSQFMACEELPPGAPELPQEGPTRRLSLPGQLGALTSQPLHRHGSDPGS

Going from `CC(=O)Nc1ccc(S(=O)(=O)N2CCn3cccc3C2C)cc1` (centres unmarked) to `CCOc1ccc(NC(=O)C(C)NS(=O)(=O)c2ccc(NC(C)=O)cc2)cc1` (centres unmarked), the “hERG current change (%, negative = inhibition) at 10uM” value rises from -16.3% to 16.8%.

Going from `O=C(CN1CCNCC1)Nc1ccccc1Cl` to `CC(=O)N1CCN(CC(=O)Nc2ccc(Cl)c(S(=O)(=O)N(C)C)c2)CC1`, the “hERG current change (%, negative = inhibition) at 10uM” value rises from -2.06% to 8.45%.

Going from `O=C(c1cc([N+](=O)[O-])cc([N+](=O)[O-])c1)N(c1ccccn1)c1ccccn1` to `Cc1cccc(C2Nc3ccccc3C(=O)N2NC(=O)c2ccc([N+](=O)[O-])cc2)n1` (centres unmarked), the “hERG current change (%, negative = inhibition) at 10uM” value rises from -11.9% to -5.91%.

First: COC(=O)c1ccc(Cn2nc(C)c([N+](=O)[O-])c2C)o1
Second: COCCCNC(=O)c1ccc(CS(=O)(=O)Cc2cccc(C)c2)o1
The “hERG current change (%, negative = inhibition) at 10uM” value of the first is higher: 12.9% for the first, -5.75% for the second.

Going from `O=C(Nc1cc2c(cc1C(=O)O)OCCCO2)c1ccc(F)cc1F` to `COc1ccccc1Nc1nnc(SCC(=O)NC(=O)Nc2ccc3c(c2)OCCO3)s1`, the “hERG current change (%, negative = inhibition) at 10uM” value falls from 12.2% to -8.87%.

First: COc1ccc(/C=C2\SC(=S)N(CCC(=O)N3CCOCC3)C2=O)cc1
Second: COc1ccc(N2CCN(C(=O)Cc3ccc(S(=O)(=O)N4CCOCC4)s3)CC2)cc1
The “hERG current change (%, negative = inhibition) at 10uM” value of the first is higher: 19.7% for the first, -19.7% for the second.

First: N#C/C(=C/c1ccc(-c2ccccc2[N+](=O)[O-])o1)C(=O)NCCN1CCCCC1
Second: Cc1ccn(CC(=O)N2CCCC(C(=O)c3cccc4ccccc34)C2)n1 (centres unmarked)
The “hERG current change (%, negative = inhibition) at 10uM” value of the first is lower: -69.1% for the first, 13.1% for the second.

Compared with `CC(C)(C)NC(=O)C(c1ccccn1)N(C(=O)c1csnn1)C1CCCC1` (centres unmarked), `O=C(NCC(=O)N(c1cccc(F)c1)C(C(=O)NC1CCCC1)c1cccnc1)c1cccs1` (centres unmarked) is higher in “hERG current change (%, negative = inhibition) at 10uM” value: -10.3% for the first, -2.35% for the second.

Going from `Cc1cc(Cl)c(S(=O)(=O)N/N=C/c2ccc3c(c2)OCO3)c(Cl)c1` to `Cc1ccccc1OC(C)C(=O)Nc1ccc2c(c1)OCO2` (centres unmarked), the “hERG current change (%, negative = inhibition) at 10uM” value falls from 2.77% to -5.65%.

Going from `COc1ccc(C(=O)Nc2cc3c4c(c2)C(C)C(=O)N4CCC3)cc1` (centres unmarked) to `COc1ccc(CCN2CC(C(=O)NCCc3cn[nH]c3)CCC2=O)cc1` (centres unmarked), the “hERG current change (%, negative = inhibition) at 10uM” value rises from -15.5% to -10.8%.

Compared with `O=C(CSc1ncn[nH]1)Nc1ncc(C(F)(F)F)cc1Cl`, `CCCCn1nnnc1SCC(=O)Nc1ccc(F)cc1` is lower in “hERG current change (%, negative = inhibition) at 10uM” value: 19.2% for the first, 0.129% for the second.

Going from `Cc1cc(C)cc(OCC(=O)OCC(=O)NC2CCCC2)c1` to `Cc1ccc(O)c(NC(=O)CCC2CCCCC2)c1`, the “hERG current change (%, negative = inhibition) at 10uM” value rises from 2.19% to 5.06%.

Compared with `Cc1sc2ncnc(NCC(C)(C)N3CCOCC3)c2c1C`, `C1CCc2c(nc3nnnn3c2N2CCOCC2)C1` is higher in “hERG current change (%, negative = inhibition) at 10uM” value: -71.7% for the first, -3.03% for the second.

Going from `CC(=O)Nc1ccc(C(=O)NNC(=O)c2cccs2)cc1` to `O=C(Nc1ccccc1O)c1cccc(NC(=O)c2ccco2)c1`, the “hERG current change (%, negative = inhibition) at 10uM” value falls from 17% to 2.51%.

Compared with `COc1ccc(C(CNC(=O)C(CC(C)C)NS(=O)(=O)c2ccc(C)cc2)N2CCOCC2)cc1` (centres unmarked), `COc1ccc(S(N)(=O)=O)cc1C(=O)NCCCN1CCN(c2ccccc2OC)CC1.CS(=O)(=O)O` is higher in “hERG current change (%, negative = inhibition) at 10uM” value: -3.25% for the first, 2.27% for the second.

Compared with `CSCCC(C(=O)Nc1ccc2c(c1)OCO2)N1C(=O)c2ccccc2C1=O` (centres unmarked), `CC(C)(C)N(Cc1nc(-c2ccccc2)no1)C(=O)c1ccc2c(c1)OCO2` is higher in “hERG current change (%, negative = inhibition) at 10uM” value: -6.23% for the first, 7.02% for the second.

Going from `COc1ccc(-c2nn(-c3ccccc3)cc2/C=N/NC(=O)c2cccc(S(=O)(=O)Nc3ccccc3Cl)c2)cc1` to `CC(=O)Nc1ccc(N=Cc2c(O)c(C(=O)Nc3ccccc3)cc3ccccc23)cc1`, the “hERG current change (%, negative = inhibition) at 10uM” value rises from -11.1% to 18.4%.

Going from `CSc1nnc(C(C)(C)C)c(=O)n1/N=C/c1ccc(Cl)cc1` to `Cc1cc(Oc2cnn(C(C)(C)C)c(=O)c2Cl)cc(C(C)C)c1`, the “hERG current change (%, negative = inhibition) at 10uM” value rises from 0.0206% to 15.4%.

Going from `CC(=O)N1CCC(C(=O)NC2CCCc3c2cnn3-c2cc(F)cc(F)c2)CC1` (centres unmarked) to `Cc1cc(OCC(=O)N2CCC(C(=O)NCC(C)C)CC2)c2c3c(c(=O)oc2c1)CCCC3`, the “hERG current change (%, negative = inhibition) at 10uM” value rises from -4.52% to 9.92%.

Compared with `O=C(c1ccco1)N1CCN(Cc2c(Cl)cccc2Cl)CC1`, `O=S(=O)(c1ccc(Cl)s1)N1CCN(Cc2ccccc2)CC1` is lower in “hERG current change (%, negative = inhibition) at 10uM” value: -8.42% for the first, -19.5% for the second.

First: Cc1ccccc1N1CCN(C2CCCN(C(=O)c3cnsn3)C2)CC1 (centres unmarked)
Second: CC12CCC(C(=O)N(CCCCN3CCN(c4ccccn4)CC3)C1=O)C2(C)C (centres unmarked)
The “hERG current change (%, negative = inhibition) at 10uM” value of the first is lower: -58.2% for the first, -46.3% for the second.

Going from `CCCCNC(=S)N/N=C/c1ccc(C)s1` to `CCCCOc1ccc(-c2nc(/C=N/c3nccs3)c(O)o2)cc1`, the “hERG current change (%, negative = inhibition) at 10uM” value rises from -1.99% to 28.8%.

Going from `COc1cccc(-c2ccc(NC(=O)C3CCCN(Cc4cnc(C)s4)C3)cc2)c1` (centres unmarked) to `COc1cccc(-c2nnc(SCC(=O)N3CC(C)CC(C)C3)o2)c1` (centres unmarked), the “hERG current change (%, negative = inhibition) at 10uM” value falls from 2.11% to -39.5%.

Compared with `Cc1c(C(=O)O)oc2ccc3c(c12)C(O)CC(C)(C)O3` (centres unmarked), `CC(=O)c1c(C)[nH]c(C(=O)Nc2ccccn2)c1C` is lower in “hERG current change (%, negative = inhibition) at 10uM” value: 13.7% for the first, 3.43% for the second.

Compared with `O=C(Cc1ccc(F)cc1)Nc1cccc2cccnc12`, `O=C(COc1ccc(F)cc1)Nc1nnc(C2CC2)s1` is higher in “hERG current change (%, negative = inhibition) at 10uM” value: -9.5% for the first, -5.03% for the second.

Going from `S=C(NC1CC1)N1CCc2ccccc2C1` to `CC1CCC(NC(=O)CNC(=S)N2CC3CC(C2)c2cccc(=O)n2C3)CC1` (centres unmarked), the “hERG current change (%, negative = inhibition) at 10uM” value rises from 0.433% to 8.46%.

First: Cl.O=C(/C=C/c1cn(-c2ccccc2)nc1-c1ccc2c(c1)OCCO2)NCCCN1CCOCC1
Second: Cc1ccc(N2CCOCC2)c2c1C(=O)c1ccccc1C2=O
The “hERG current change (%, negative = inhibition) at 10uM” value of the first is higher: -5.65% for the first, -19.1% for the second.

Compared with `COCCN1CCn2c(nc3cc(NC(=O)Cn4nc(C)c5ccccc5c4=O)ccc32)C1`, `CCOC(=O)c1cc2c(=O)n3ccccc3nc2n(CCCOC)c1=NC(=O)c1cccnc1` is lower in “hERG current change (%, negative = inhibition) at 10uM” value: 17.8% for the first, -68% for the second.

First: COc1ccc(CCN2C(=O)CC(C(N)=O)SC2=Nc2ccccc2)cc1OC (centres unmarked)
Second: COC(=O)Cc1c(O)ccn(CCc2c[nH]c3ccccc23)c1=O
The “hERG current change (%, negative = inhibition) at 10uM” value of the first is lower: -16.9% for the first, 19.5% for the second.

Compared with `COc1ccc(-n2c(SCc3ccc([N+](=O)[O-])cc3)nnc2-c2ccccc2)cc1`, `Cc1noc(-c2ccccc2OC(=O)c2ccccc2)n1` is higher in “hERG current change (%, negative = inhibition) at 10uM” value: -24.4% for the first, 3.36% for the second.

Compared with `Cc1cc(NC(=O)CCCN2C(=O)/C(=C\c3cccs3)SC2=S)no1`, `CCc1cccc(NC(=O)CCC(=O)N2CCSc3ccccc32)c1` is lower in “hERG current change (%, negative = inhibition) at 10uM” value: 11.5% for the first, -34.8% for the second.

Compared with `Cn1c2ccccc2c2cc(/C=N/NC(=O)c3cc(O)cc(O)c3)ccc21`, `COc1cccc(C(=O)/C=C/Nc2cccc(O)c2)c1` is lower in “hERG current change (%, negative = inhibition) at 10uM” value: 26% for the first, -4.68% for the second.

First: CCOC(=O)c1sc(NC(=O)/C=C/c2ccc(F)cc2)nc1C
Second: Cc1ccc2sc(NC(=O)CSc3nc(C)cc(C)c3C#N)nc2c1
The “hERG current change (%, negative = inhibition) at 10uM” value of the first is lower: -27.3% for the first, -2.59% for the second.

Going from `C[C@H](CCC(=O)[O-])[C@H]1CC[C@H]2[C@@H]3[C@H](O)C[C@@H]4C[C@H](O)CC[C@]4(C)[C@H]3C[C@H](O)[C@]12C.[Na+]` to `CCc1cc(=O)oc2cc(OCC(=O)N3CC[C@@]4(O)CCCC[C@H]4C3)ccc12`, the “hERG current change (%, negative = inhibition) at 10uM” value falls from 6.42% to 4.79%.

Compared with `O=C(O)C1CCC(N2C(=O)C3C4CCC(C4)C3C2=O)CC1` (centres unmarked), `Cc1ccc(CC(=O)N2CCN(C(=O)C3CCCO3)CC2)cc1` (centres unmarked) is lower in “hERG current change (%, negative = inhibition) at 10uM” value: 14.6% for the first, 1.64% for the second.

First: O=C(NCCCn1ccnc1)C(=O)NCC1OCCN1S(=O)(=O)c1ccc(F)cc1 (centres unmarked)
Second: O=C(CCNS(=O)(=O)c1ccccc1)OCC(=O)c1ccc(Cl)cc1
The “hERG current change (%, negative = inhibition) at 10uM” value of the first is higher: 13.6% for the first, -30% for the second.

Compared with `CC(C)CN(C(=O)c1cccc(F)c1)c1c(N)n(CC(C)C)c(=O)[nH]c1=O`, `C=CCn1c(C)cc(C(=O)CSc2nc3ccccc3[nH]2)c1C` is lower in “hERG current change (%, negative = inhibition) at 10uM” value: 26.8% for the first, -19.1% for the second.

Compared with `Cc1cccc(OCC(=O)N/N=C/C=C/c2ccco2)c1`, `Cc1ccc(C)c(NC(=O)/C(C#N)=C/c2ccc[nH]2)c1` is higher in “hERG current change (%, negative = inhibition) at 10uM” value: 7.41% for the first, 8.28% for the second.

First: O=C(CCNS(=O)(=O)c1cccc2nsnc12)NC1CCN(Cc2ccccc2)CC1
Second: O=C(CC(NS(=O)(=O)c1ccc(Cl)cc1)c1ccco1)N1CCc2ccccc21 (centres unmarked)
The “hERG current change (%, negative = inhibition) at 10uM” value of the first is lower: -28.4% for the first, -14.8% for the second.

First: COc1ccc(NS(=O)(=O)c2csc(C(=O)N3CCCC3)c2)c(OC)c1
Second: CCN1CCN(S(=O)(=O)c2ccc(Cl)c(C(=O)N(C)Cc3ccc(Cl)cc3Cl)c2)CC1
The “hERG current change (%, negative = inhibition) at 10uM” value of the first is lower: -14.5% for the first, -9.34% for the second.

First: C=CCn1c(=O)c2c3c(sc2n2c(Nc4ccc(OC)cc4)nnc12)CCCC3
Second: Cc1ccc(NC(=O)c2ccc(-n3cncn3)c([N+](=O)[O-])c2)cc1F
The “hERG current change (%, negative = inhibition) at 10uM” value of the first is higher: 7.17% for the first, -18.1% for the second.

Going from `Fc1ccc(C2c3[nH]c4ccccc4c3CCN2Cc2cccn2-c2ncccn2)cc1` (centres unmarked) to `O=C(/C=C/Nc1ccccc1)c1cnc(-c2ccccc2)s1`, the “hERG current change (%, negative = inhibition) at 10uM” value rises from -52.2% to 12.9%.

Going from `Cc1cc(C)cc(N2C(=O)CC(n3nc(C)cc3C)C2=O)c1` (centres unmarked) to `NC(=O)N/N=C/c1c(F)c(F)c(F)c(F)c1F`, the “hERG current change (%, negative = inhibition) at 10uM” value rises from 8.22% to 15.6%.
